Data: the supplement of paper PMC12230231
± gives the standard deviation of the averaged measurements. Restriction of a single-cycle SIVsab GFP reporter by TRIM5α v1-loop variants in CRFK cells. Human variants: read share among cells still uninfected after two challenges over input, higher = gained restriction. Rhesus variants: share among infected cells over input, higher = lost restriction. Reporter dose not given per row. No active / inactive call per row; the paper calls a change when both replicates lie above its controls (mean + 2 SD of stop or wild-type variants, or the top frameshift score). Residues outside the varied loop are taken from Swiss-Prot. The paper reads the human single-substitution scores as noise; they and the rhesus combinations repeat poorly (rank correlation 0.3 to 0.4), indel scores repeat only for the top variants, rhesus substitutions well (0.9).

Each sequence was assayed on SIVsab (simian immunodeficiency virus of sabaeus monkeys), single-cycle GFP reporter, in CRFK cells (assay: enrichment among infected cells over input (fold); higher = weaker restriction). Settings: library: human / rhesus combinations.
Method: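 Pools of CRFK cells expressing variants of the TRIM5α v1 loop were challenged with the single-cycle reporter, sorted by GFP and sequenced; mean of two replicates.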
“MASGILLNVKEEVTCPICLELLTEPLSLHCGHSFCQACITANHKKSMLYKEGERSCPVCRISYQPENIQPNRHVANIVEKLREVKLSPEEGQKVDHCARHGEKLLLFCQEDSKVICWLCERSQEHRGHHTFLMEEVAQEYHVKLQTALEMLRQKQQEAEKLEADIREEKASWKIQIDYDKTNVSADFEQLREILDWEESNELQNLEKEEEDILKSLTKSETEMVQQTQYMRELISELEHRLQGSMMDLLQGVDGIIKRIENMTLKKPKTFHKNQRRVFRAPDLKGMLDMFRELTDARRYWVDVTLAPNNISHAVIAEDKRQVSSRNPQIMYGARGTRFQTFTNFNYCTGVLGSQSITSGKHYWEVDVSKKSAWILGVCAGFQSDAMYNIEQNENYQPKYGYWVIGLQEGVKYSVFQDGSSHTPFAPFIVPLSVIICPDRVGVFVDYEACTVSFFNITNHGFLIYKFSQCSFSKPVFPYLNPRKCTVPMTLCSPSS [rhesus TRIM5α, 332-344 = GARGTRFQTFT]” gave an enrichment of 1.62 ± 1.7.
Sequence “MASGILLNVKEEVTCPICLELLTEPLSLHCGHSFCQACITANHKKSMLYKEGERSCPVCRISYQPENIQPNRHVANIVEKLREVKLSPEEGQKVDHCARHGEKLLLFCQEDSKVICWLCERSQEHRGHHTFLMEEVAQEYHVKLQTALEMLRQKQQEAEKLEADIREEKASWKIQIDYDKTNVSADFEQLREILDWEESNELQNLEKEEEDILKSLTKSETEMVQQTQYMRELISELEHRLQGSMMDLLQGVDGIIKRIENMTLKKPKTFHKNQRRVFRAPDLKGMLDMFRELTDARRYWVDVTLAPNNISHAVIAEDKRQVSSRNPQIMYGAPGTRYTFQSFVNFNYCTGVLGSQSITSGKHYWEVDVSKKSAWILGVCAGFQSDAMYNIEQNENYQPKYGYWVIGLQEGVKYSVFQDGSSHTPFAPFIVPLSVIICPDRVGVFVDYEACTVSFFNITNHGFLIYKFSQCSFSKPVFPYLNPRKCTVPMTLCSPSS [rhesus TRIM5α, 332-344 = GAPGTRYTFQSFV]” has an enrichment of 1 ± 0.22.
“MASGILLNVKEEVTCPICLELLTEPLSLHCGHSFCQACITANHKKSMLYKEGERSCPVCRISYQPENIQPNRHVANIVEKLREVKLSPEEGQKVDHCARHGEKLLLFCQEDSKVICWLCERSQEHRGHHTFLMEEVAQEYHVKLQTALEMLRQKQQEAEKLEADIREEKASWKIQIDYDKTNVSADFEQLREILDWEESNELQNLEKEEEDILKSLTKSETEMVQQTQYMRELISELEHRLQGSMMDLLQGVDGIIKRIENMTLKKPKTFHKNQRRVFRAPDLKGMLDMFRELTDARRYWVDVTLAPNNISHAVIAEDKRQVSSRNPQIMYGAPGTRYPSLVNFNYCTGVLGSQSITSGKHYWEVDVSKKSAWILGVCAGFQSDAMYNIEQNENYQPKYGYWVIGLQEGVKYSVFQDGSSHTPFAPFIVPLSVIICPDRVGVFVDYEACTVSFFNITNHGFLIYKFSQCSFSKPVFPYLNPRKCTVPMTLCSPSS [rhesus TRIM5α, 332-344 = GAPGTRYPSLV]” gave an enrichment of 0.749 ± 0.072.
“MASGILLNVKEEVTCPICLELLTEPLSLHCGHSFCQACITANHKKSMLYKEGERSCPVCRISYQPENIQPNRHVANIVEKLREVKLSPEEGQKVDHCARHGEKLLLFCQEDSKVICWLCERSQEHRGHHTFLMEEVAQEYHVKLQTALEMLRQKQQEAEKLEADIREEKASWKIQIDYDKTNVSADFEQLREILDWEESNELQNLEKEEEDILKSLTKSETEMVQQTQYMRELISELEHRLQGSMMDLLQGVDGIIKRIENMTLKKPKTFHKNQRRVFRAPDLKGMLDMFRELTDARRYWVDVTLAPNNISHAVIAEDKRQVSSRNPQIMYQARGTRFQSFTNFNYCTGVLGSQSITSGKHYWEVDVSKKSAWILGVCAGFQSDAMYNIEQNENYQPKYGYWVIGLQEGVKYSVFQDGSSHTPFAPFIVPLSVIICPDRVGVFVDYEACTVSFFNITNHGFLIYKFSQCSFSKPVFPYLNPRKCTVPMTLCSPSS [rhesus TRIM5α, 332-344 = QARGTRFQSFT]” was tested, and the enrichment was 2.08 ± 2.2.
Work on “MASGILLNVKEEVTCPICLELLTEPLSLHCGHSFCQACITANHKKSMLYKEGERSCPVCRISYQPENIQPNRHVANIVEKLREVKLSPEEGQKVDHCARHGEKLLLFCQEDSKVICWLCERSQEHRGHHTFLMEEVAQEYHVKLQTALEMLRQKQQEAEKLEADIREEKASWKIQIDYDKTNVSADFEQLREILDWEESNELQNLEKEEEDILKSLTKSETEMVQQTQYMRELISELEHRLQGSMMDLLQGVDGIIKRIENMTLKKPKTFHKNQRRVFRAPDLKGMLDMFRELTDARRYWVDVTLAPNNISHAVIAEDKRQVSSRNPQIMYQAPGTLYTFPTFTNFNYCTGVLGSQSITSGKHYWEVDVSKKSAWILGVCAGFQSDAMYNIEQNENYQPKYGYWVIGLQEGVKYSVFQDGSSHTPFAPFIVPLSVIICPDRVGVFVDYEACTVSFFNITNHGFLIYKFSQCSFSKPVFPYLNPRKCTVPMTLCSPSS [rhesus TRIM5α, 332-344 = QAPGTLYTFPTFT]” yielded an enrichment of 2.26 ± 1.1.
“MASGILLNVKEEVTCPICLELLTEPLSLHCGHSFCQACITANHKKSMLYKEGERSCPVCRISYQPENIQPNRHVANIVEKLREVKLSPEEGQKVDHCARHGEKLLLFCQEDSKVICWLCERSQEHRGHHTFLMEEVAQEYHVKLQTALEMLRQKQQEAEKLEADIREEKASWKIQIDYDKTNVSADFEQLREILDWEESNELQNLEKEEEDILKSLTKSETEMVQQTQYMRELISELEHRLQGSMMDLLQGVDGIIKRIENMTLKKPKTFHKNQRRVFRAPDLKGMLDMFRELTDARRYWVDVTLAPNNISHAVIAEDKRQVSSRNPQIMYGAPGTLFQSFTNFNYCTGVLGSQSITSGKHYWEVDVSKKSAWILGVCAGFQSDAMYNIEQNENYQPKYGYWVIGLQEGVKYSVFQDGSSHTPFAPFIVPLSVIICPDRVGVFVDYEACTVSFFNITNHGFLIYKFSQCSFSKPVFPYLNPRKCTVPMTLCSPSS [rhesus TRIM5α, 332-344 = GAPGTLFQSFT]” gave an enrichment of 0.075 ± 0.1.
In the case of “MASGILLNVKEEVTCPICLELLTEPLSLHCGHSFCQACITANHKKSMLYKEGERSCPVCRISYQPENIQPNRHVANIVEKLREVKLSPEEGQKVDHCARHGEKLLLFCQEDSKVICWLCERSQEHRGHHTFLMEEVAQEYHVKLQTALEMLRQKQQEAEKLEADIREEKASWKIQIDYDKTNVSADFEQLREILDWEESNELQNLEKEEEDILKSLTKSETEMVQQTQYMRELISELEHRLQGSMMDLLQGVDGIIKRIENMTLKKPKTFHKNQRRVFRAPDLKGMLDMFRELTDARRYWVDVTLAPNNISHAVIAEDKRQVSSRNPQIMYQAPGTRFTFPTLVNFNYCTGVLGSQSITSGKHYWEVDVSKKSAWILGVCAGFQSDAMYNIEQNENYQPKYGYWVIGLQEGVKYSVFQDGSSHTPFAPFIVPLSVIICPDRVGVFVDYEACTVSFFNITNHGFLIYKFSQCSFSKPVFPYLNPRKCTVPMTLCSPSS [rhesus TRIM5α, 332-344 = QAPGTRFTFPTLV]”, the enrichment is reported as 2.46 ± 0.62.
In the case of “MASGILLNVKEEVTCPICLELLTEPLSLHCGHSFCQACITANHKKSMLYKEGERSCPVCRISYQPENIQPNRHVANIVEKLREVKLSPEEGQKVDHCARHGEKLLLFCQEDSKVICWLCERSQEHRGHHTFLMEEVAQEYHVKLQTALEMLRQKQQEAEKLEADIREEKASWKIQIDYDKTNVSADFEQLREILDWEESNELQNLEKEEEDILKSLTKSETEMVQQTQYMRELISELEHRLQGSMMDLLQGVDGIIKRIENMTLKKPKTFHKNQRRVFRAPDLKGMLDMFRELTDARRYWVDVTLAPNNISHAVIAEDKRQVSSRNPQIMYQARGTRYTFQSFVNFNYCTGVLGSQSITSGKHYWEVDVSKKSAWILGVCAGFQSDAMYNIEQNENYQPKYGYWVIGLQEGVKYSVFQDGSSHTPFAPFIVPLSVIICPDRVGVFVDYEACTVSFFNITNHGFLIYKFSQCSFSKPVFPYLNPRKCTVPMTLCSPSS [rhesus TRIM5α, 332-344 = QARGTRYTFQSFV]”, the enrichment is reported as 1.54 ± 0.19.
